In paper PMC5540273 (PLoS ONE, 2017):
For some of these results: The strong results were mostly taken out for another list; the other results follow. This is a selection; strong and weak results do not stand in their true shares.

Key:
Details in all cases: concentration: 1 μM,replicates: in singlicate; n = 1
ROCK2 = tested on: ROCK2
ROS1 = tested on: ROS1
[1] = tested on: RPS6KA4(Kin.Dom.1-N-terminal)
[2] = tested on: RPS6KA4(Kin.Dom.2-C-terminal)
[3] = tested on: RPS6KA5(Kin.Dom.1-N-terminal)
[4] = tested on: RPS6KA5(Kin.Dom.2-C-terminal)
[5] = tested on: T1, RSK1(Kin.Dom.1-N-terminal)
T1 construct: gene RPS6KA1

[6] = tested on: T2, RSK1(Kin.Dom.2-C-terminal)
T2 construct: gene RPS6KA1

[7] = tested on: T3, RSK2(Kin.Dom.1-N-terminal)
T3 construct: gene RPS6KA3

[8] = tested on: T4, RSK2(Kin.Dom.2-C-terminal)
T4 construct: gene RPS6KA3

[9] = tested on: T5, RSK3(Kin.Dom.1-N-terminal)
T5 construct: gene RPS6KA2

[10] = tested on: T6, RSK3(Kin.Dom.2-C-terminal)
T6 construct: gene RPS6KA2

[11] = tested on: T7, RSK4(Kin.Dom.1-N-terminal)
T7 construct: gene RPS6KA6

[12] = tested on: T8, RSK4(Kin.Dom.2-C-terminal)
T8 construct: gene RPS6KA6

S6K1 = tested on: S6K1
SBK1 = tested on: SBK1
SGK2 = tested on: SGK2
SGK3 = tested on: SGK3
SGK = tested on: SGK
SIK2 = tested on: SIK2
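Further: KINOMEscan kinase panel screen.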

Compound	%Inh (ROCK2) [%]	%Inh (ROS1) [%]	%Inh [1] [%]	%Inh [2] [%]	%Inh [3] [%]	%Inh [4] [%]	%Inh [5] [%]	%Inh [6] [%]	%Inh [7] [%]	%Inh [8] [%]	%Inh [9] [%]	%Inh [10] [%]	%Inh [11] [%]	%Inh [12] [%]	%Inh (S6K1) [%]	%Inh (SBK1) [%]	%Inh (SGK2) [%]	%Inh (SGK3) [%]	%Inh (SGK) [%]	%Inh (SIK2) [%]
COc1cccc(C2=C(Nc3ccc(SC)cc3)C(=O)NC2=O)c1 [SB-331032]	28	22	17	0	0	20	0	34	38	7	0	35	34	9	0	60	18	13	20	8
O=C1NC(=O)C(c2ccccc2)=C1Nc1cc(Cl)c(O)c(Cl)c1 [SB-390530]	5	0	0	0	5	0	0	0	0	6	14	0	10	0	14	0	0	34	0	9
O=C1NC(=O)C(c2ccc(Cl)cc2)=C1Nc1ccccc1 [SB-317661]	53	0	2	25	0	0	0	0	50	0	0	0	15	0	26	23	26	19	20	0
O=C(O)c1ccc(-c2nc(-c3ccc(F)cc3)c(-c3ccncc3)[nH]2)cc1 [SB-202620]	11	3	5	0	6	18	34	76	34	0	8	31	29	93.9	3	14	0	0	6	39
O=C1NC(=O)C(c2ccccc2)=C1Nc1ccc(Cl)c(C(=O)O)c1 [SB-390532]	26	0	0	0	0	0	25	0	4	16	5	0	0	0	15	0	5	1	12	0
CS(=O)(=O)c1ccccc1-c1nc(-c2ccc(F)cc2)c(-c2ccncc2)[nH]1 [SB-213663]	43	0	21	0	0	0	24	24	5	14	5	28	0	63	0	0	5	0	5	0
Cc1cc(C)cc(Oc2nccc(-c3c(-c4ccc(F)cc4)ncn3C3CCNCC3)n2)c1.O=C(O)C(F)(F)F.O=C(O)C(F)(F)F.O=C(O)C(F)(F)F [SB-284851]	0	0	0	0	0	17	0	0	12	49	0	4	0	0	0	0	0	0	0	13
O=C1NC(=O)c2c1c(-c1ccccc1)cc1[nH]c3ccc(O)cc3c21	21	0	68	14	0	1	65	14	93.8	0	97.6	10	98.4	19	49	25	27	72	59	50
O=C1NC(=O)C(c2ccc(Cl)cc2)=C1Nc1cccc(O)c1 [SB-333613]	32	0	0	0	0	0	0	24	37	47	2	11	31	17	16	35	0	20	26	6
O=C1NC(=O)C(c2ccccc2Cl)=C1Nc1ccccc1 [SB-376715]	0	14	0	0	0	4	0	0	0	0	10	0	34	23	0	0	0	3	0	0
CSc1ccc(NC2=C(c3cccc(Cl)c3)C(=O)NC2=O)cc1 [SB-341528]	0	21	11	7	3	2	22	0	14	0	0	0	13	1	26	2	21	8	12	0
Cc1ccc(C)c(Oc2nccc(-c3c(-c4ccc(F)cc4)ncn3C3CCNCC3)n2)c1.O=C(O)C(F)(F)F.O=C(O)C(F)(F)F.O=C(O)C(F)(F)F [SB-284852]	0	0	17	5	3	6	7	0	0	30	18	6	0	0	0	0	7	–	0	0
O=C1NC(=O)C(c2ccccc2Cl)=C1Nc1cccc(C(=O)O)c1 [SB-390526]	14	0	0	0	0	0	0	0	0	0	4	0	0	4	0	34	0	0	0	2
O=C1NC(=O)C(c2ccc(Cl)cc2)=C1Nc1cccc(C(=O)O)c1 [SB-360737]	70	0	11	0	11	0	27	6	8	0	0	0	0	0	18	0	6	3	0	0
COc1ccc(C2=C(Nc3cccc(Cl)c3)C(=O)NC2=O)cc1 [SB-326892]	0	0	8	6	0	2	0	57	7	6	13	0	13	7	0	0	0	9	0	0
O=C1NC(=O)C(c2ccc(Cl)cc2)=C1Nc1ccc(O)c(Cl)c1 [SB-405367]	0	0	0	14	0	2	9	26	19	0	4	2	9	0	31	27	11	15	7	0
